# The list shows a part of the results.
# B1: cupB6 (Pseudomonas aeruginosa), Q02SP7 (protein)
# chain: MSMRLFPGRVSLRRRPGAQARQALVLGLCCLTGGQAWALNEVALNCSFGNGKGLPWRVVNELTSGTAKGTVLFARPVSLFLSYKPQASQEAHELVLGGNWSGVGYPGPYGTVASDVKGIGYRISVDAQDGVKRVIPVDNQPHALDKRVTSFSGSTTSDYLQELVLTVDPGELPAGDLKVTSVSGSATLNLWAVDRLKGEASIGSVLAVPADNYPTGVCRKPYSLIGPASIAIGGGPPPPPIPKKCKVEVGREINVKLGSVALKNFPRVNDTSTERSFDISLSECAALAKPEIAFRDKYVSAQQADPTILSLKSGGAAGFGIVVKNGLDQQRIRFDGTPYPMRRVGDSADLPLSAAYIRIGAEGELKAGVADGAAEFTFTFP
# Legend:
# Test in all cases: glycan array binding signal (z-score within array); higher = stronger binding
# Settings in all cases: glycan notation: IUPAC condensed, linker removed
# [1] = target: Gal(b1-4)GlcNAc(b1-3)Gal(b1-4)[Fuc(a1-3)]GlcNAc(b1-3)Gal(b1-4)[Fuc(a1-3)]GlcNAc
# In short: (§1)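 From the Consortium for Functional Glycomics database, 3228 arrays were curated, keeping only those whose protein sequence was available. Binding is given as a within-array Z-score averaged across arrays sharing a protein sequence and across linkers. Negative Z-scores can be read as non-binding.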
# [2] = target: Gal(b1-4)GlcNAc(b1-3)GalNAc
# In short: as §1
# [3] = target: Gal(b1-4)GlcNAc(b1-3)[Gal(b1-4)GlcNAc(b1-6)]Gal(b1-4)GlcNAc
# In short: as §1
# [4] = target: Gal(b1-4)GlcNAc(b1-3)[Gal(b1-4)GlcNAc(b1-6)]GalNAc
# In short: as §1
# [5] = target: Gal(b1-4)GlcNAc(b1-3)[GlcNAc(b1-6)]Gal(b1-4)GlcNAc
# In short: as §1
# [6] = target: Gal(b1-4)GlcNAc(b1-6)Gal(b1-4)GlcNAc
# In short: as §1
# [7] = target: Gal(b1-4)GlcNAc(b1-6)GalNAc
# In short: as §1
# [8] = target: Gal(b1-4)GlcNAc(b1-6)[Gal(b1-3)]GalNAc
# In short: as §1
# [9] = target: Gal3S(b1-3)GalNAc
# In short: as §1
# [10] = target: Gal3S(b1-3)GlcNAc
# In short: as §1
# [11] = target: Gal3S(b1-3)[Fuc(a1-4)]GlcNAc
# In short: as §1
# [12] = target: Gal3S(b1-4)Glc
# In short: as §1
# [13] = target: Gal3S(b1-4)Glc6S
# In short: as §1
# [14] = target: Gal3S(b1-4)GlcNAc
# In short: as §1
# [15] = target: Gal3S(b1-4)GlcNAc6S
# In short: as §1
# [16] = target: Gal3S(b1-4)[Fuc(a1-3)]Glc
# In short: as §1
# [17] = target: Gal3S(b1-4)[Fuc(a1-3)]Glc6S
# In short: as §1
# [18] = target: Gal3S4S(b1-4)GlcNAc
# In short: as §1
# [19] = target: Gal3S6S(b1-4)GlcNAc
# In short: as §1
# [20] = target: Gal3S6S(b1-4)GlcNAc6S
# In short: as §1
# [21] = target: Gal4S(b1-4)GlcNAc
# In short: as §1
# [22] = target: Gal4S6S(b1-4)GlcNAc
# In short: as §1
# [23] = target: Gal6S(b1-4)Glc
# In short: as §1
# [24] = target: Gal6S(b1-4)Glc6S
# In short: as §1
# [25] = target: Gal6S(b1-4)GlcNAc
# In short: as §1
# [26] = target: Gal6S(b1-4)GlcNAc6S
# In short: as §1
# [27] = target: GalNAc(a1-3)Gal
# In short: as §1
# [28] = target: GalNAc(a1-3)GalNAc
# In short: as §1
# [29] = target: GalNAc(a1-3)GalNAc(a1-3)Gal(a1-4)Gal(b1-4)GlcNAc
# In short: as §1
# [30] = target: GalNAc(b1-3)Gal
# In short: as §1
# [31] = target: GalNAc(b1-3)Gal(a1-4)Gal(b1-4)GlcNAc
# In short: as §1
# [32] = target: GalNAc(b1-3)Gal(a1-4)Gal(b1-4)GlcNAc(b1-3)Gal(b1-4)Glc
# In short: as §1
# [33] = target: GalNAc(b1-3)Gal(a1-6)Gal(b1-4)Glc
# In short: as §1
# [34] = target: GalNAc(b1-3)GalNAc
# In short: as §1
# [35] = target: GalNAc(b1-4)GlcNAc
# In short: as §1
# [36] = target: GalNAc(b1-4)GlcNAc(b1-2)Man(a1-3)[GalNAc(b1-4)GlcNAc(b1-2)Man(a1-6)]Man(b1-4)GlcNAc(b1-4)GlcNAc
# In short: as §1
# [37] = target: Glc(a1-4)Glc
# In short: as §1
# [38] = target: Glc(a1-6)Glc(a1-6)Glc
# In short: as §1
# [39] = target: Glc(b1-4)Glc
# In short: as §1
# [40] = target: Glc(b1-6)Glc
# In short: as §1
# [41] = target: GlcA(b1-3)Gal
# In short: as §1
# [42] = target: GlcA(b1-3)GlcNAc
# In short: as §1
# [43] = target: GlcA(b1-6)Gal
# In short: as §1
# [44] = target: GlcNAc(a1-3)Gal(b1-4)GlcNAc
# In short: as §1
# [45] = target: GlcNAc(a1-4)Gal(b1-3)GlcNAc
# In short: as §1
# [46] = target: GlcNAc(a1-4)Gal(b1-4)GalNAc
# In short: as §1
# [47] = target: GlcNAc(a1-4)Gal(b1-4)GlcNAc
# In short: as §1
# [48] = target: GlcNAc(a1-4)Gal(b1-4)GlcNAc(b1-3)Gal(b1-4)Glc
# In short: as §1
# [49] = target: GlcNAc(a1-4)Gal(b1-4)GlcNAc(b1-3)Gal(b1-4)GlcNAc
# In short: as §1
# [50] = target: GlcNAc(a1-4)Gal(b1-4)GlcNAc(b1-3)Gal(b1-4)GlcNAc(b1-3)Gal(b1-4)GlcNAc
# In short: as §1
# [51] = target: GlcNAc(a1-4)Gal(b1-4)GlcNAc(b1-3)Gal(b1-4)[Fuc(a1-3)]GlcNAc(b1-3)Gal(b1-4)[Fuc(a1-3)]GlcNAc
# In short: as §1
# [52] = target: GlcNAc(a1-6)Gal(b1-4)GlcNAc
# In short: as §1
# [53] = target: GlcNAc(b1-2)Gal(b1-3)GalNAc
# In short: as §1
# [54] = target: GlcNAc(b1-2)Man(a1-3)[GlcNAc(b1-2)Man(a1-6)]Man(b1-4)GlcNAc(b1-4)GlcNAc
# In short: as §1
# [55] = target: GlcNAc(b1-2)Man(a1-3)[GlcNAc(b1-2)Man(a1-6)]Man(b1-4)GlcNAc(b1-4)[Fuc(a1-6)]GlcNAc
# In short: as §1
# [56] = target: GlcNAc(b1-2)[GlcNAc(b1-4)]Man(a1-3)[GlcNAc(b1-2)Man(a1-6)]Man(b1-4)GlcNAc(b1-4)GlcNAc
# In short: as §1
# [57] = target: GlcNAc(b1-3)Gal
# In short: as §1
# [58] = target: GlcNAc(b1-3)Gal(b1-3)GalNAc
# In short: as §1
# [59] = target: GlcNAc(b1-3)Gal(b1-4)Glc
# In short: as §1
# [60] = target: GlcNAc(b1-3)Gal(b1-4)GlcNAc
# In short: as §1
# [61] = target: GlcNAc(b1-3)Gal(b1-4)GlcNAc(b1-3)Gal(b1-4)GlcNAc
# In short: as §1
# [62] = target: GlcNAc(b1-3)GalNAc
# In short: as §1
# [63] = target: GlcNAc(b1-3)Man
# In short: as §1
# [64] = target: GlcNAc(b1-3)[GlcNAc(b1-4)][GlcNAc(b1-6)]GlcNAc
# In short: as §1
# [65] = target: GlcNAc(b1-3)[GlcNAc(b1-6)]Gal(b1-4)GlcNAc
# In short: as §1
# [66] = target: GlcNAc(b1-3)[GlcNAc(b1-6)]GalNAc
# In short: as §1
# [67] = target: GlcNAc(b1-4)Gal(b1-4)GlcNAc
# In short: as §1
# [68] = target: GlcNAc(b1-4)GlcNAc
# In short: as §1
# [69] = target: GlcNAc(b1-4)GlcNAc(b1-4)GlcNAc
# In short: as §1
# [70] = target: GlcNAc(b1-4)GlcNAc(b1-4)GlcNAc(b1-4)GlcNAc(b1-4)GlcNAc
# In short: as §1
# [71] = target: GlcNAc(b1-4)GlcNAc(b1-4)GlcNAc(b1-4)GlcNAc(b1-4)GlcNAc(b1-4)GlcNAc
# In short: as §1
# [72] = target: GlcNAc(b1-4)[GlcNAc(b1-6)]GalNAc
# In short: as §1
# [73] = target: GlcNAc(b1-6)Gal(b1-4)GlcNAc
# In short: as §1
# [74] = target: GlcNAc(b1-6)GalNAc
# In short: as §1
# [75] = target: GlcNAc3Prop(b1-4)GlcNAc
# In short: as §1
binder,measurement,setting,value
B1,glycan array binding signal (z-score),[1],0.136
same,glycan array binding signal (z-score),[2],0.036
same,glycan array binding signal (z-score),[3],0.012
same,glycan array binding signal (z-score),[4],-0.207
same,glycan array binding signal (z-score),[5],0.065
same,glycan array binding signal (z-score),[6],0.116
same,glycan array binding signal (z-score),[7],-0.128
same,glycan array binding signal (z-score),[8],-0.03
same,glycan array binding signal (z-score),[9],-0.096
same,glycan array binding signal (z-score),[10],-0.182
same,glycan array binding signal (z-score),[11],-0.069
same,glycan array binding signal (z-score),[12],-0.206
same,glycan array binding signal (z-score),[13],-0.149
same,glycan array binding signal (z-score),[14],-0.183
same,glycan array binding signal (z-score),[15],-0.208
same,glycan array binding signal (z-score),[16],-0.226
same,glycan array binding signal (z-score),[17],0.209
same,glycan array binding signal (z-score),[18],-0.09
same,glycan array binding signal (z-score),[19],-0.193
same,glycan array binding signal (z-score),[20],-0.237
same,glycan array binding signal (z-score),[21],-0.004
same,glycan array binding signal (z-score),[22],-0.327
same,glycan array binding signal (z-score),[23],-0.029
same,glycan array binding signal (z-score),[24],-0.098
same,glycan array binding signal (z-score),[25],-0.168
same,glycan array binding signal (z-score),[26],0.174
same,glycan array binding signal (z-score),[27],-0.173
same,glycan array binding signal (z-score),[28],0.065
same,glycan array binding signal (z-score),[29],-0.131
same,glycan array binding signal (z-score),[30],0.216
same,glycan array binding signal (z-score),[31],-0.13
same,glycan array binding signal (z-score),[32],-0.12
same,glycan array binding signal (z-score),[33],0.007
same,glycan array binding signal (z-score),[34],-0.138
same,glycan array binding signal (z-score),[35],-0.099
same,glycan array binding signal (z-score),[36],0.27
same,glycan array binding signal (z-score),[37],-0.049
same,glycan array binding signal (z-score),[38],-0.127
same,glycan array binding signal (z-score),[39],-0.188
same,glycan array binding signal (z-score),[40],-0.14
same,glycan array binding signal (z-score),[41],-0.087
same,glycan array binding signal (z-score),[42],-0.167
same,glycan array binding signal (z-score),[43],0.029
same,glycan array binding signal (z-score),[44],-0.184
same,glycan array binding signal (z-score),[45],-0.118
same,glycan array binding signal (z-score),[46],-0.083
same,glycan array binding signal (z-score),[47],0.139
same,glycan array binding signal (z-score),[48],0.057
same,glycan array binding signal (z-score),[49],0.017
same,glycan array binding signal (z-score),[50],-0.161
same,glycan array binding signal (z-score),[51],0.164
same,glycan array binding signal (z-score),[52],-0.197
same,glycan array binding signal (z-score),[53],-0.181
same,glycan array binding signal (z-score),[54],-0.061
same,glycan array binding signal (z-score),[55],0.318
same,glycan array binding signal (z-score),[56],-0.121
same,glycan array binding signal (z-score),[57],-0.046
same,glycan array binding signal (z-score),[58],-0.209
same,glycan array binding signal (z-score),[59],-0.188
same,glycan array binding signal (z-score),[60],-0.113
same,glycan array binding signal (z-score),[61],0.022
same,glycan array binding signal (z-score),[62],-0.094
same,glycan array binding signal (z-score),[63],-0.22
same,glycan array binding signal (z-score),[64],-0.001
same,glycan array binding signal (z-score),[65],-0.048
same,glycan array binding signal (z-score),[66],-0.097
same,glycan array binding signal (z-score),[67],-0.192
same,glycan array binding signal (z-score),[68],-0.037
same,glycan array binding signal (z-score),[69],-0.07
same,glycan array binding signal (z-score),[70],-0.039
same,glycan array binding signal (z-score),[71],-0.162
same,glycan array binding signal (z-score),[72],-0.217
same,glycan array binding signal (z-score),[73],-0.05
same,glycan array binding signal (z-score),[74],-0.194
same,glycan array binding signal (z-score),[75],-0.094

# Source: the supplement of paper PMC8728848
